Tests used:
BCR-ABL1 H396P = BCR-ABL1 H396P (Homo sapiens, UniProt P00519, H396P); conditions: read-out: Kinase IC50 BCR-ABL1 H396P; [ATP] = 10 µM, n = 2
BCR-ABL1 T315I = BCR-ABL1 T315I (Homo sapiens, UniProt P00519, T315I); conditions: read-out: Kinase IC50 BCR-ABL1 T315I; [ATP] = 10 µM, n = 2
BCR-ABL1 M351T = BCR-ABL1 M351T (Homo sapiens, UniProt P00519, M351T); assay: biochemical

Row | SMILES | IC50 (BCR-ABL1 H396P) | IC50 (BCR-ABL1 T315I) | IC50 (BCR-ABL1 M351T)
1 | COc1cc2c(Nc3cccc(OC)c3Cl)c(C#N)cnc2cc1OCCON1CCN(C)CC1 [12a, 4-((2-Chloro-3-methoxyphenyl)amino)-6-methoxy-7-(2-((4-methylpiperazin-1-yl)oxy)ethoxy)quinoline-3-carbonitrile] | 20 nM | 368 nM | 31 nM
2 | COc1cc2c(Nc3cccc(OC)c3F)c(C#N)cnc2cc1OCCON1CCN(C)CC1 [13a, 4-((2-Fluoro-3-methoxyphenyl)amino)-6-methoxy-7-(2-((4-methylpiperazin-1-yl)oxy)ethoxy)quinoline-3-carbonitrile] | 15 nM | 445 nM | 24 nM
3 | COc1cc(Nc2c(C#N)cnc3cc(OCCON4CCN(C)CC4)c(OC)cc23)ccc1Cl [14a] | < 1 nM | 95 nM | 1 nM

Next, values leading:

Row | IC50 (BCR-ABL1 H396P) | IC50 (BCR-ABL1 T315I) | IC50 (BCR-ABL1 M351T) | SMILES
4 | < 1 nM | 166 nM | 2 nM | COc1cc(Nc2c(C#N)cnc3cc(OCCON4CCN(C)CC4)c(OC)cc23)c(F)cc1Cl [8a, 4-((4-Chloro-2-fluoro-5-methoxyphenyl)amino)-6-methoxy-7-(2-((4-methylpiperazin-1-yl)oxy)ethoxy)quinoline-3-carbonitrile]
5 | 7 nM | 220 nM | 13 nM | COc1cc(Cl)ccc1Nc1c(C#N)cnc2cc(OCCON3CCN(C)CC3)c(OC)cc12 [15a, 4-((4-Chloro-2-methoxyphenyl)amino)-6-methoxy-7-(2-((4-methylpiperazin-1-yl)oxy)ethoxy)quinoline-3-carbonitrile]
